Among all 310,000 compounds or so, about 14,000 (4.5%) showed an effect of 50% or more. The effect is printed as a negative number. The list shows a part of the results.
What follows are molecules tested against human ether-à-go-go-related gene (hERG) potassium channel (human, UniProt Q12809) (assay: primary screen, population patch clamp on CHO cells stably expressing hERG).
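Also: peak tail current of the secondary pulse compared with the same well before compound.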

Sequence of human ether-à-go-go-related gene (hERG) potassium channel (Q12809 whole entry, looked up): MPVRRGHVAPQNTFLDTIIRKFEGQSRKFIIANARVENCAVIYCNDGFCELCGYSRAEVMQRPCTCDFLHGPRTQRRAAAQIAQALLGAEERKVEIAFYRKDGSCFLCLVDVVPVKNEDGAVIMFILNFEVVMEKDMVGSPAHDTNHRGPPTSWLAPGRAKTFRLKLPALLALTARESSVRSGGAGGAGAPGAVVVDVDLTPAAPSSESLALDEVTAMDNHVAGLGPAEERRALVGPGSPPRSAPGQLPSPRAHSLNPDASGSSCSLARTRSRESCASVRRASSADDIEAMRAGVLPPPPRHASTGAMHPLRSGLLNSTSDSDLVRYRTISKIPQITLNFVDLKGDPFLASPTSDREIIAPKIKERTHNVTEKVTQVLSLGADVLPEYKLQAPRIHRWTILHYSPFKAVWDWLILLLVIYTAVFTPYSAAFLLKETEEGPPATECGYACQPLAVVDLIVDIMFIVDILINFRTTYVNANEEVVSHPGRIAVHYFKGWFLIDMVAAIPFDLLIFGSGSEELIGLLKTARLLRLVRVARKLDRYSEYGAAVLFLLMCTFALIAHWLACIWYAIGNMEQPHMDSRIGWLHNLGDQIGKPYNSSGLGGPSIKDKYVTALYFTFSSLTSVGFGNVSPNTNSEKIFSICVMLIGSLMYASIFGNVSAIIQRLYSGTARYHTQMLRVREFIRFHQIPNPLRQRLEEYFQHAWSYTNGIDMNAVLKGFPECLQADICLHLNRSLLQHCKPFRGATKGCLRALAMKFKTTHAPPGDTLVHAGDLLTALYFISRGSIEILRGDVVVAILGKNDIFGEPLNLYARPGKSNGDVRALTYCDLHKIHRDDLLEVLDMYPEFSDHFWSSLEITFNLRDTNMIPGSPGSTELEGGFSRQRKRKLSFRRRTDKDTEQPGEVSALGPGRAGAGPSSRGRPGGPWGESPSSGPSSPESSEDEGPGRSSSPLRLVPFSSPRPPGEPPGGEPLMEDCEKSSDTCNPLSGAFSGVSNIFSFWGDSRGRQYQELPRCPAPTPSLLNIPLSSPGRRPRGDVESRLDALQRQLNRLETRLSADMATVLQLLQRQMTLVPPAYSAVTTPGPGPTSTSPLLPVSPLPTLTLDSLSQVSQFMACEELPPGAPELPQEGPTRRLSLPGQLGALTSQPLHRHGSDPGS

| Structure (SMILES) | hERG current change (%, negative = inhibition) at 10uM [%] |
| --- | --- |
| N/C(=N\OC(=O)Nc1ccccc1)c1cccc(C(F)(F)F)c1 | -25.6 |
| COc1ccc(C(=O)Nc2ccc(S(=O)(=O)N3CCCCC3)cc2)cc1OC | -9.83 |
| Cc1cc(C)n(-c2ccc(C(=O)Nc3ccc4c(c3)OCCO4)cc2)n1 | -9.55 |
| Cc1ccc(N2C(=O)CC(N3CCSCC3)C2=O)c(C)c1 (stereo not shown) | 10.2 |
| CN(Cc1nc(CC2CC2)no1)CC12CC3CC(CC(C3)C1)C2 | 0.8 |
| COC(=O)Cc1ccc(NC(=S)NCCO)cc1 | 17.6 |
| COc1cccc(-c2nnn(CCC(=O)O)n2)c1 | 4.12 |
| CCOC(=O)C1(CCCc2ccccc2)CCN(C(=O)CCc2cnn(C)c2)CC1 | -74.2 |
| O=C(NCC(c1ccco1)N1CCN(c2ccccc2)CC1)OCc1ccccc1 (stereo not shown) | -10.2 |
| Cc1nnc(SCC(=O)c2ccc(S(=O)(=O)N3CCOCC3)cc2)n1-c1ccccc1 | -20.2 |
| CCc1c(C(=O)OCc2ccccc2)[nH]c(C)c1C | 7.38 |
| NC(=O)COc1cccc(/C=N/NC(=O)c2ccc(-n3cccc3)cc2)c1 | 13.5 |
| CCOc1ccc(NC(=O)C2CCCN2C(=O)Oc2ccccc2)cc1 (stereo not shown) | 6.3 |
| COC(=O)c1ccccc1OCCN1CCCCCC1.O=C(O)C(=O)O | -46.2 |
| O=C(Nc1ccccc1Br)c1cc(=O)c2ccccc2o1 | 6.61 |
| Nc1ncc2c(n1)CCN(c1ccc([N+](=O)[O-])cc1)C2 | -43.2 |
| CC(=O)c1ccc(NC(=O)COC(=O)CCN2C(=O)c3cccc([N+](=O)[O-])c3C2=O)cc1 | 22.1 |
| CCOc1ccc(/C(O)=C2/C(=O)C(=O)N(c3nc(C)c(C)s3)C2c2ccco2)cc1 (stereo not shown) | -1.14 |
| O=c1cc(-c2ccco2)nc(-c2cccs2)o1 | 17.4 |
| CCN(CC)CC#CCOC(c1ccccc1)c1ccccc1.Cl | -43.3 |
| CCCCn1c(=O)[nH]c(=O)c2c1nc(-c1ccsc1)n2Cc1ccccc1 | -7.65 |
| COc1cc(OC)c(OC)cc1/C=C/c1cc(C(F)(F)F)[nH]c(=O)n1 | 26.6 |

| Structure (SMILES) | hERG current change (%, negative = inhibition) at 10uM [%] |
| --- | --- |
| CCOC(=O)Cc1csc(N/N=C/c2ccc(Cl)cc2)n1 | 14.8 |
| O=C(Nc1cccc(F)c1)N1CC=C(c2ccc(Cl)cc2)CC1 | -13.8 |
| CCN(c1cccc(C)c1)S(=O)(=O)c1cn(CC(=O)OC)c2ccc([N+](=O)[O-])cc12 | 2.47 |
| O=C(COC(=O)c1ccc(Cl)c(S(=O)(=O)N2CCc3ccccc3C2)c1)Nc1ncc(Cl)cc1Cl | 3.4 |
| COc1ccc(N2CC(NC(=O)c3cccc4ccccc34)CC2=O)cc1OC (stereo not shown) | -2.85 |
| Cc1cc(Br)cc2c1N(C)C(=O)C2(c1ccc(O)cc1)c1ccc(O)cc1 | 3.46 |
| COc1cc(NC(=S)N2CCN(C)CC2)c(OC)cc1Cl | -21.4 |
| CCc1nnc(N2C(=O)c3ccccc3C2(O)c2ccccc2)s1 (stereo not shown) | -12.9 |
| NC(=O)c1c(NC(=O)CN2CCN(S(=O)(=O)c3ccccc3)CC2)sc2c1CCC2 | -43.7 |
| Cc1nc2c3cc(F)ccc3n(Cc3ccc(F)cc3)c2s1 | 13.8 |
| Cc1ccc2c(CC(=O)NCC3(N4CCOCC4)CCCCC3)coc2c1C | -25.5 |
| CC(O)[C@H]1CNC(=O)C(=O)N1CCc1cc(C(F)(F)F)cc(C(F)(F)F)c1 (stereo partly shown) | 18.9 |
| COCCCn1c(=N)c(C(=O)NCC2CCCO2)cc2c(=O)n3ccccc3nc21 (stereo not shown) | -64.3 |
| CN1CCN(C(=O)c2cc3nc(-c4ccco4)cc(C(F)(F)F)n3n2)CC1 | 8.28 |
| CC[n+]1cc(-c2ccccc2)nc(N2CCOCC2)n1.[I-] | 2.69 |
| CC1(C2CC2)NC(=O)N(CC(=O)NCc2ccc(Cl)cc2Cl)C1=O (stereo not shown) | -2.25 |
| Cc1cc2cc(CN(Cc3nnnn3C3CCCCC3)CC3CCCO3)c(=O)[nH]c2cc1C (stereo not shown) | -7.12 |
| CCOC(=O)C1CCN(C(=O)COC(=O)CCOc2ccc(C)cc2)CC1 | -4.14 |
| CCOC(=O)c1ccc2nc(C)cc(Nc3cccc(C(=O)O)c3)c2c1 | 5.41 |
| O=C(NNc1ccc([N+](=O)[O-])cc1[N+](=O)[O-])c1ccco1 | 4.59 |
| COc1ccccc1N1CCN(C2=NS(=O)(=O)c3ccccc32)CC1 | -7.39 |
| N#Cc1ccc(C(=O)CSc2n[nH]c(=O)n2Cc2ccco2)cc1 | -45.8 |

| Structure (SMILES) | hERG current change (%, negative = inhibition) at 10uM [%] |
| --- | --- |
| Cc1nc2c(-c3ccc(F)cc3)c(C)nn2c(C)c1CCC(=O)NC(C)CCc1ccco1 (stereo not shown) | -68.8 |
| CCN(CC)C(=O)c1sc(NC(=O)c2ccc(OC)c([N+](=O)[O-])c2)c(C#N)c1C | 10.4 |
| CN1CCN(NC(=O)c2cc(-c3ccc(Cl)s3)nc3ccccc23)CC1 | -21 |
| CCOC(=O)N1CCN(C(=O)Nc2cccc3ccccc23)CC1 | 27.6 |
| CC1Cc2ccccc2N1C(=S)NC(=O)C1(C)CC1(Cl)Cl (stereo not shown) | 30.1 |
| COc1ccc(/C=N/n2cnnc2)cc1Oc1nc(Cl)ncc1F | -23.2 |
| CS(=O)(=O)N(Cc1ccccc1)c1ccccc1C(=O)O | 27.9 |
| Cc1cccc(N2C(=O)c3ccc(C(=O)Nc4c[nH]c(=O)[nH]c4=O)cc3C2=O)c1 | 16.4 |
| O=S(=O)(NCc1ccccc1Cl)c1cccs1 | 10.2 |
| Cc1ccc(Oc2ccccc2/C=N/O)cc1 | -3.84 |
| CCCNC(=O)c1c(N)n(-c2ccc3c(c2)OCO3)c2nc3ccccc3nc12 | 17.9 |
| CNC(=O)CN(c1ccc(C23CC4CC(CC(C4)C2)C3)cc1)S(C)(=O)=O | 14.8 |
| Cn1c(=O)c2sccc2n2c(CCCC(=O)N3CCCCC3)nnc12 | 5.19 |
| CCN1C(=O)CC(N2CCC(C(=O)N3CCOCC3)CC2)C1=O (stereo not shown) | 7.58 |
| CN(C)C(CNC(=O)c1ccccc1C(F)(F)F)c1ccco1 (stereo not shown) | 7.83 |
| CCN1CC(CN(C)Cc2cn(-c3ccc(C)cc3)nc2-c2cccc(C)c2)CC1=O (stereo not shown) | -60.5 |
| Cc1cc(Nc2ccccc2Cl)nc(-c2ccccc2O)n1 | 7.12 |
| COc1ccc(NC(=O)c2cc(-c3ccco3)on2)c(OC)c1 | 23.2 |
| CN(C)/C=C(\C#N)S(=O)(=O)c1ccccc1 | 9.4 |
| O=C(O)C1C2C=CC(CC2)C1C(=O)O (stereo not shown) | 16.6 |
| O=C(Cc1ccc(-c2ccccc2)cc1)NNC(=S)NCc1ccco1 | 8.5 |
| Cc1cc(NC(=O)Cc2ccccc2)no1 | 3.97 |

| Structure (SMILES) | hERG current change (%, negative = inhibition) at 10uM [%] |
| --- | --- |
| COCCn1c(N)c(N(Cc2ccccc2)C(=O)c2ccc(C#N)cc2)c(=O)[nH]c1=O | -1.47 |
| CN(C)/C=C1\C=C(c2ccccc2)OC1=O | 14.1 |
| CCOc1cnc(C(=O)NNC(=O)c2ccccc2Br)o1 | 11 |
| FCCCOc1ccc(-c2nccc(-c3ccc(Cl)cc3)n2)cc1 | 17.3 |
| CCOCCCn1cnc2c([nH]c3cc(OC)ccc32)c1=O | -12.5 |
| Cc1ccc(CSC2=NCCN2C(=O)C2CC2)cc1 | 0.327 |
| CCOC(=O)c1sc2ccccc2c1NC(=O)c1coc2ccccc2c1=O | 1.75 |
| CN(Cc1ccco1)C(=O)Cn1c(=O)oc2cc(S(=O)(=O)NCc3ccccc3)ccc21 | -5.21 |
| CCCCc1ccc(NS(=O)(=O)N(C)C)cc1 | -4.03 |
| O=C(c1cnn(C(=O)c2cccc(S(=O)(=O)N3CCOCC3)c2)c1)c1cc(Cl)cc(Cl)c1O | -44.5 |
| C=CCn1c(SCC(=O)NC2CCCc3ccccc32)nnc1-c1ccncc1 (stereo not shown) | -14.5 |
| CCOc1ccc(-n2c(Cc3cc(=O)[nH]c(=O)[nH]3)nnc2SCC(=O)Nc2nnc(C)s2)cc1 | -40.1 |
| COc1ccc2c(c1)[nH]c1c(=O)n(/N=C/c3ccc(OC)c(CN4CCCCC4)c3)cnc12 | -64.3 |
| O=S(=O)(Nc1ccc(-c2nc3cccnc3s2)cc1)c1ccc(Cl)s1 | -3.47 |
| CCOc1cc(/C=N/Nc2nc3ccccc3[nH]2)cc(Br)c1OCC(=O)N(C)C | -0.635 |
| Cc1cccc(NC(=O)C(=O)NCCc2c[nH]c3ccccc23)c1C | 0.383 |
| CCCCN(C)CCNC(=O)CN1C(=O)CSc2ccc(S(=O)(=O)N3CCOCC3)cc21 | 2.2 |
| Cc1cccc(CN2CCN(Cc3ccc4nonc4c3)CC2CCO)n1 (stereo not shown) | -35.6 |
| Cc1ccccc1N(C)C(=O)C1CCCN(c2ncnc3c2nc2n3CCCCC2)C1 (stereo not shown) | -7.96 |
| Cc1nc(COc2ccccc2Cl)sc1-c1ccnc(N)n1 | -4.73 |
| Cc1ccc(-n2c(=O)c3c4c(sc3n3c(C)nnc23)COC(C(C)C)C4)cc1 (stereo not shown) | 11.1 |
| COc1ccc(NC(=O)c2cccc(S(=O)(=O)N(C)c3ccccc3)c2)cn1 | -24.6 |

Source: publication PMC4336329 (PLoS ONE, 2015)
